Results as given in PMC4605623.
Results are given in words; binding and its absence hold for the method and conditions named. For some of these results: In cells and extracts the contact can be indirect. Some entries that bind do so weakly or less than the wild type. Sequences can lack the tags named with a protein.

Columns and labels:
[1] = molecular target: T1, full-length STMN2, yeast two-hybrid fusion (UniProt Q93045); test: two-hybrid; … Two-Hybrid System 3, constructs co-transformed into AH109 S. cerevisiae, growth on selective media and reporter gene activation; each cDNA in either pGBKT7 or pGADT7; at least three times in triplicate
T1 sequence: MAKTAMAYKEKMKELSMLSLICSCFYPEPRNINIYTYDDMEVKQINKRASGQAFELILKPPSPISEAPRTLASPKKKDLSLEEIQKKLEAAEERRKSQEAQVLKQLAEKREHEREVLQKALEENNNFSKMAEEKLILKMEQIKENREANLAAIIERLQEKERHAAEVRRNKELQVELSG

[2] = molecular target: T2, STMN1^1–41, yeast two-hybrid fusion (UniProt P16949); test: as above
T2 sequence: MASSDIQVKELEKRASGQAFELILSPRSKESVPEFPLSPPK

[3] = molecular target: T3, full-length STMN1, yeast two-hybrid fusion (UniProt P16949); test: as above
T3 sequence: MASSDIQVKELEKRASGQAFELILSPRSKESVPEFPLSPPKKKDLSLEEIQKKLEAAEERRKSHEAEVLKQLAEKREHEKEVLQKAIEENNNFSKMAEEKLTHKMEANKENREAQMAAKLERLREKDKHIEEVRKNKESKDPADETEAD

[4] = molecular target: T4, STMN1^42–149, yeast two-hybrid fusion (UniProt P16949); test: as above
T4 sequence: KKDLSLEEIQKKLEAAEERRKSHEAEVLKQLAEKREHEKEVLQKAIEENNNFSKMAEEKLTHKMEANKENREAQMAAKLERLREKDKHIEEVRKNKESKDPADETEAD

GST-STMN1 fusion protein = molecular target: T5, GST-STMN1 fusion protein (UniProt P16949); test: pull-down; GST-STMN1 from E. coli immobilized on sepharose beads, incubated with lysates of transfected HEK293T cells 16 h at 4°C; washed three times (Tris, 150 mM NaCl, 1 mM EDTA); immunoblot with anti-GFP; only the target purified
T5 sequence: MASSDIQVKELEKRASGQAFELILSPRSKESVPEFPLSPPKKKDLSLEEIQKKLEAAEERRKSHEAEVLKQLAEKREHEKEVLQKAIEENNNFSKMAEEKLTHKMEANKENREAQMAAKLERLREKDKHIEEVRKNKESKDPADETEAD

| Binder | binding [1] | binding [2] | binding [3] | binding [4] | binding (GST-STMN1 fusion protein) |
| --- | --- | --- | --- | --- | --- |
| N-terminus of FANCC (FANCC^1–306), yeast two-hybrid fusion (domain or fragment, UniProt Q00597 1-306) MAQDSVDLSCDYQFWMQKLSVWDQASTLETQQDTCLHVAQFQEFLRKMYEALKEMDSNTVIERFPTIGQLLAKACWNPFILAYDESQKILIWCLCCLINKEPQNSGQSKLNSWIQGVLSHILSALRFDKEVALFTQGLGYAPIDYYPGLLKNMVLSLASELRENHLNGFNTQRRMAPERVASLSRVCVPLITLTDVDPLVEALLICHGREPQEILQPEFFEAVNEAILLKKISLPMSAVVCLWLRHLPSLEKAMLHLFEKLISSERNCLRRIECFIKDSSLPQAACHPAIFRVVDEMFRCALLETD | binds | no binding | binds | no binding | – |
| C-terminus of FANCC (FANCC^307–558), yeast two-hybrid fusion (domain or fragment, UniProt Q00597 307-558) GALEIIATIQVFTQCFVEALEKASKQLRFALKTYFPYTSPSLAMVLLQDPQDIPRGHWLQTLKHISELLREAVEDQTHGSCGGPFESWFLFIHFGGWAEMVAEQLLMSAAEPPTALLWLLAFYYGPRDGRQQRAQTMVQVKAVLGHLLAMSRSSSLSAQDLQTVAGQGTDTDLRAPAQQLIRHLLLNFLLWAPGGHTIAWDVITLMAHTAEITHEIIGFLDQTLYRWNRLGIESPRSEKLARELLKELRTQV | binds | no binding | binds | no binding | – |
| full-length FANCC, yeast two-hybrid fusion (protein, UniProt Q00597 1-558) MAQDSVDLSCDYQFWMQKLSVWDQASTLETQQDTCLHVAQFQEFLRKMYEALKEMDSNTVIERFPTIGQLLAKACWNPFILAYDESQKILIWCLCCLINKEPQNSGQSKLNSWIQGVLSHILSALRFDKEVALFTQGLGYAPIDYYPGLLKNMVLSLASELRENHLNGFNTQRRMAPERVASLSRVCVPLITLTDVDPLVEALLICHGREPQEILQPEFFEAVNEAILLKKISLPMSAVVCLWLRHLPSLEKAMLHLFEKLISSERNCLRRIECFIKDSSLPQAACHPAIFRVVDEMFRCALLETDGALEIIATIQVFTQCFVEALEKASKQLRFALKTYFPYTSPSLAMVLLQDPQDIPRGHWLQTLKHISELLREAVEDQTHGSCGGPFESWFLFIHFGGWAEMVAEQLLMSAAEPPTALLWLLAFYYGPRDGRQQRAQTMVQVKAVLGHLLAMSRSSSLSAQDLQTVAGQGTDTDLRAPAQQLIRHLLLNFLLWAPGGHTIAWDVITLMAHTAEITHEIIGFLDQTLYRWNRLGIESPRSEKLARELLKELRTQV | binds | no binding | binds | no binding | – |
| FANCC C-terminus construct harboring the L554P mutation (FANCC^307-558-L554P), yeast two-hybrid fusion (domain or fragment, UniProt Q00597 307-558) GALEIIATIQVFTQCFVEALEKASKQLRFALKTYFPYTSPSLAMVLLQDPQDIPRGHWLQTLKHISELLREAVEDQTHGSCGGPFESWFLFIHFGGWAEMVAEQLLMSAAEPPTALLWLLAFYYGPRDGRQQRAQTMVQVKAVLGHLLAMSRSSSLSAQDLQTVAGQGTDTDLRAPAQQLIRHLLLNFLLWAPGGHTIAWDVITLMAHTAEITHEIIGFLDQTLYRWNRLGIESPRSEKLARELLKEPRTQV | binds | no binding | no binding | no binding | – |
| EGFP-FANCC (GFP-tagged full length FANCC) (protein, UniProt Q00597 1-558) MAQDSVDLSCDYQFWMQKLSVWDQASTLETQQDTCLHVAQFQEFLRKMYEALKEMDSNTVIERFPTIGQLLAKACWNPFILAYDESQKILIWCLCCLINKEPQNSGQSKLNSWIQGVLSHILSALRFDKEVALFTQGLGYAPIDYYPGLLKNMVLSLASELRENHLNGFNTQRRMAPERVASLSRVCVPLITLTDVDPLVEALLICHGREPQEILQPEFFEAVNEAILLKKISLPMSAVVCLWLRHLPSLEKAMLHLFEKLISSERNCLRRIECFIKDSSLPQAACHPAIFRVVDEMFRCALLETDGALEIIATIQVFTQCFVEALEKASKQLRFALKTYFPYTSPSLAMVLLQDPQDIPRGHWLQTLKHISELLREAVEDQTHGSCGGPFESWFLFIHFGGWAEMVAEQLLMSAAEPPTALLWLLAFYYGPRDGRQQRAQTMVQVKAVLGHLLAMSRSSSLSAQDLQTVAGQGTDTDLRAPAQQLIRHLLLNFLLWAPGGHTIAWDVITLMAHTAEITHEIIGFLDQTLYRWNRLGIESPRSEKLARELLKELRTQV | – | – | – | – | binds |
| EGFP-FANCC^L554P (full-length FANCC harboring the L554P mutation) (protein, UniProt Q00597 1-558) MAQDSVDLSCDYQFWMQKLSVWDQASTLETQQDTCLHVAQFQEFLRKMYEALKEMDSNTVIERFPTIGQLLAKACWNPFILAYDESQKILIWCLCCLINKEPQNSGQSKLNSWIQGVLSHILSALRFDKEVALFTQGLGYAPIDYYPGLLKNMVLSLASELRENHLNGFNTQRRMAPERVASLSRVCVPLITLTDVDPLVEALLICHGREPQEILQPEFFEAVNEAILLKKISLPMSAVVCLWLRHLPSLEKAMLHLFEKLISSERNCLRRIECFIKDSSLPQAACHPAIFRVVDEMFRCALLETDGALEIIATIQVFTQCFVEALEKASKQLRFALKTYFPYTSPSLAMVLLQDPQDIPRGHWLQTLKHISELLREAVEDQTHGSCGGPFESWFLFIHFGGWAEMVAEQLLMSAAEPPTALLWLLAFYYGPRDGRQQRAQTMVQVKAVLGHLLAMSRSSSLSAQDLQTVAGQGTDTDLRAPAQQLIRHLLLNFLLWAPGGHTIAWDVITLMAHTAEITHEIIGFLDQTLYRWNRLGIESPRSEKLARELLKEPRTQV | – | – | – | – | no binding |
| EGFP-FANCC^55–558 (truncated FANCC mimicking mutations in exon 1) (domain or fragment, UniProt Q00597 55-558) MDSNTVIERFPTIGQLLAKACWNPFILAYDESQKILIWCLCCLINKEPQNSGQSKLNSWIQGVLSHILSALRFDKEVALFTQGLGYAPIDYYPGLLKNMVLSLASELRENHLNGFNTQRRMAPERVASLSRVCVPLITLTDVDPLVEALLICHGREPQEILQPEFFEAVNEAILLKKISLPMSAVVCLWLRHLPSLEKAMLHLFEKLISSERNCLRRIECFIKDSSLPQAACHPAIFRVVDEMFRCALLETDGALEIIATIQVFTQCFVEALEKASKQLRFALKTYFPYTSPSLAMVLLQDPQDIPRGHWLQTLKHISELLREAVEDQTHGSCGGPFESWFLFIHFGGWAEMVAEQLLMSAAEPPTALLWLLAFYYGPRDGRQQRAQTMVQVKAVLGHLLAMSRSSSLSAQDLQTVAGQGTDTDLRAPAQQLIRHLLLNFLLWAPGGHTIAWDVITLMAHTAEITHEIIGFLDQTLYRWNRLGIESPRSEKLARELLKELRTQV | – | – | – | – | no binding |
